Binding signal (RPM ratio (pull-down/input)) data for 32 sequences are collected here from article PMC12820563.

Some of the results follow. The list includes weakly bound sequences.

The test concerns the target T1, MBP-FoxP3dN (UniProt Q99JB6).
T1 sequence: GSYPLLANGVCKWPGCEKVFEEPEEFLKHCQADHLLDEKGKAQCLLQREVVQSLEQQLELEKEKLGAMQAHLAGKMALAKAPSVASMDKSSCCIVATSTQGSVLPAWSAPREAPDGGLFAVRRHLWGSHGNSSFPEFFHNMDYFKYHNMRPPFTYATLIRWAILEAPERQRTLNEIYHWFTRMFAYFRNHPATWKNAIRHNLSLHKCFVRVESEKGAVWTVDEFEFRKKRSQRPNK
The experiment in a line: PD-seq (MBP pull-down with sequencing). The following applies: 20 mM Tris-HCl pH 7.5, 100 mM NaCl, 1.5 mM MgCl2, 0.4 uM protein, 0.1 uM dsDNA library, 30 min, room temperature, amylose pull-down; high values mean tight binding; double strand, one strand shown.
Take “GATGATTGTTCTCCCAGCTGATGAATTACTCACATCGAGTAAACAAATTTTCCTAATCTTTCTGTTCAAGCGCCATCTAC”: the binding signal (RPM ratio (pull-down/input)) worked out at 0.839.
As to “GATGATTGTTCTCCCAGCTGATGAATTGAGCGTATCGAGTAAACAAATTTTCCTAATCTTTCTGTTCAAGCGCCATCTAC”, the binding signal (RPM ratio (pull-down/input)) stood at 1.08.
Then “GATGATTGTTCTCCCAGCTGATGAATTAGTCCAATCGAGTAAACAAATTTTCCTAATCTTTCTGTTCAAGCGCCATCTAC”, with 0.342; and “GATGATTGTTCTCCCAGCTGATGAATTGCAAGCTTCGAGTAAACAAATTTTCCTAATCTTTCTGTTCAAGCGCCATCTAC”, with 0.843.
Then “GATGATTGTTCTCCCAGCTGATGAATTTGAGCCTTCGAGTAAACAAATTTTCCTAATCTTTCTGTTCAAGCGCCATCTAC”, with 1.85.
Then “GATGATTGTTCTCCCAGCTGATGAATTATTAGTCTCGAGTAAACAAATTTTCCTAATCTTTCTGTTCAAGCGCCATCTAC”, with 1.02.
As to “GATGATTGTTCTCCCAGCTGATGAATTCATAAGCTCGAGTAAACAAATTTTCCTAATCTTTCTGTTCAAGCGCCATCTAC”, the binding signal (RPM ratio (pull-down/input)) is 0.294.
On to “GATGATTGTTCTCCCAGCTGATGAATTCAGGGTCTCGAGTAAACAAATTTTCCTAATCTTTCTGTTCAAGCGCCATCTAC”, for which the binding signal (RPM ratio (pull-down/input)) stood at 0.56.
For the sequence “GATGATTGTTCTCCCAGCTGATGAATTCTGAAAATCGAGTAAACAAATTTTCCTAATCTTTCTGTTCAAGCGCCATCTAC”, the binding signal (RPM ratio (pull-down/input)) was 0.189.
Regarding “GATGATTGTTCTCCCAGCTGATGAATTGCATCGGTCGAGTAAACAAATTTTCCTAATCTTTCTGTTCAAGCGCCATCTAC”, the binding signal (RPM ratio (pull-down/input)) amounted to 1.43.
In the case of “GATGATTGTTCTCCCAGCTGATGAATTCCAGGAATCGAGTAAACAAATTTTCCTAATCTTTCTGTTCAAGCGCCATCTAC” it was 0.154.
In the case of “GATGATTGTTCTCCCAGCTGATGAATTTACAAAATCGAGTAAACAAATTTTCCTAATCTTTCTGTTCAAGCGCCATCTAC” it was 0.51; in that of “GATGATTGTTCTCCCAGCTGATGAATTCTTATTTTCGAGTAAACAAATTTTCCTAATCTTTCTGTTCAAGCGCCATCTAC”, 0.818; in that of “GATGATTGTTCTCCCAGCTGATGAATTCGTCTCTTCGAGTAAACAAATTTTCCTAATCTTTCTGTTCAAGCGCCATCTAC”, 0.526.
In the case of “GATGATTGTTCTCCCAGCTGATGAATTGCTAACATCGAGTAAACAAATTTTCCTAATCTTTCTGTTCAAGCGCCATCTAC” it was 1.09; in that of “GATGATTGTTCTCCCAGCTGATGAATTAGGCTGCTCGAGTAAACAAATTTTCCTAATCTTTCTGTTCAAGCGCCATCTAC”, 0.639; in that of “GATGATTGTTCTCCCAGCTGATGAATTGCGGAGCTCGAGTAAACAAATTTTCCTAATCTTTCTGTTCAAGCGCCATCTAC”, 0.454.
As to “GATGATTGTTCTCCCAGCTGATGAATTGACTACCTCGAGTAAACAAATTTTCCTAATCTTTCTGTTCAAGCGCCATCTAC”, the binding signal (RPM ratio (pull-down/input)) is 0.373.
With “GATGATTGTTCTCCCAGCTGATGAATTGGTACCCTCGAGTAAACAAATTTTCCTAATCTTTCTGTTCAAGCGCCATCTAC”, the binding signal (RPM ratio (pull-down/input)) is 0.521.
In the case of “GATGATTGTTCTCCCAGCTGATGAATTCCACGCCTCGAGTAAACAAATTTTCCTAATCTTTCTGTTCAAGCGCCATCTAC” it was 0.585; in that of “GATGATTGTTCTCCCAGCTGATGAATTTACTGATTCGAGTAAACAAATTTTCCTAATCTTTCTGTTCAAGCGCCATCTAC”, 0.851; in that of “GATGATTGTTCTCCCAGCTGATGAATTAGATAGGTCGAGTAAACAAATTTTCCTAATCTTTCTGTTCAAGCGCCATCTAC”, 0.415.
As for “GATGATTGTTCTCCCAGCTGATGAATTTGGTTTCTCGAGTAAACAAATTTTCCTAATCTTTCTGTTCAAGCGCCATCTAC”, the binding signal (RPM ratio (pull-down/input)) is 2.31.
In the case of “GATGATTGTTCTCCCAGCTGATGAATTGGGGATATCGAGTAAACAAATTTTCCTAATCTTTCTGTTCAAGCGCCATCTAC” it was 0.444; in that of “GATGATTGTTCTCCCAGCTGATGAATTTGATGTATCGAGTAAACAAATTTTCCTAATCTTTCTGTTCAAGCGCCATCTAC”, 4.63; in that of “GATGATTGTTCTCCCAGCTGATGAATTGTGTAAGTCGAGTAAACAAATTTTCCTAATCTTTCTGTTCAAGCGCCATCTAC”, 1.32.
For the sequence “GATGATTGTTCTCCCAGCTGATGAATTACTTGGTTCGAGTAAACAAATTTTCCTAATCTTTCTGTTCAAGCGCCATCTAC”, the binding signal (RPM ratio (pull-down/input)) came to 0.411.
Then “GATGATTGTTCTCCCAGCTGATGAATTCGAGGCCTCGAGTAAACAAATTTTCCTAATCTTTCTGTTCAAGCGCCATCTAC”, with 0.504.
Consider “GATGATTGTTCTCCCAGCTGATGAATTAGAGAGATCGAGTAAACAAATTTTCCTAATCTTTCTGTTCAAGCGCCATCTAC”, for which the binding signal (RPM ratio (pull-down/input)) came to 0.231.
In the case of “GATGATTGTTCTCCCAGCTGATGAATTACTAGCTTCGAGTAAACAAATTTTCCTAATCTTTCTGTTCAAGCGCCATCTAC” it was 0.393.
As for “GATGATTGTTCTCCCAGCTGATGAATTGGCTACTTCGAGTAAACAAATTTTCCTAATCTTTCTGTTCAAGCGCCATCTAC”, the binding signal (RPM ratio (pull-down/input)) was 0.418.
Then “GATGATTGTTCTCCCAGCTGATGAATTTACATGCTCGAGTAAACAAATTTTCCTAATCTTTCTGTTCAAGCGCCATCTAC”, with 0.82.
